# Screen size: about 50,000 compounds; about 800 (1.6%) showed an effect of 50% or more. The list shows a part of the results.
# Target: Bcl-2-like protein 10 (Homo sapiens) (UniProt Q9HD36)
# Test: Phenotype converters, Bcl-B/TR3 peptide binding displacement, primary biochemical FP (AID 1240);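 note: 0% = Bcl-B with tracer peptide and DMSO and 100% = tracer peptide lacking Bcl-B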
# Conditions: GST-Bcl-B / FITC-TR3 peptide fluorescence polarization; stronger effect = higher value; compound at 3.75 mg/L
# Chain of UniProt Q9HD36 (Q9HD36 whole entry, looked up): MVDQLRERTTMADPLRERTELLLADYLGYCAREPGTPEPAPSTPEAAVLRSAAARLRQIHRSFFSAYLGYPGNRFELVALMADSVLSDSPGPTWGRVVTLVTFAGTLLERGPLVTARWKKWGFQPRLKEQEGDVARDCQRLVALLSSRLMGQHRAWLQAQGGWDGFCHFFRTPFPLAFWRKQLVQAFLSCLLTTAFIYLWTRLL
row,SMILES,displacement [%]
1,O=C1CC(N2CCN(c3ccc(Cl)cc3)CC2)C(=O)N1c1cccc(Cl)c1 (centres undefined),-4.6
2,O=C(/C=C/c1ccc(F)cc1)Nc1nc(-c2ccccc2)cs1,-2
3,COC(=O)CN(c1cc(OC)ccc1OC)S(=O)(=O)c1ccccc1,-0.9
4,COc1ccc(CCNC(=O)/C=C/c2ccc3c(c2)OCO3)cc1OC,-3.5
5,COc1ccc(Cl)cc1NC(=O)C1=C(C)NC(=O)NC1c1ccc([N+](=O)[O-])cc1 (centres undefined),13.6
6,C(=Nc1ccc2ccccc2c1)c1cccnc1,-4.4
7,COCCCNS(=O)(=O)c1ccc([N+](=O)[O-])cc1,-4.5
8,COc1ccc(S(=O)(=O)NC2CCS(=O)(=O)C2)cc1 (centres undefined),-2.2
9,CCOc1ccc(N2C(=O)NC(=O)/C(=C/c3ccc(-c4ccc(C(=O)O)c(Cl)c4)o3)C2=O)cc1,-25.8
10,COc1cc(OC)c(OC)cc1CN1CCN(Cc2ccc(C)cc2C)CC1,-4
11,Cc1ccc(S(=O)(=O)NC(=O)Oc2ccc3oc(=O)sc3c2)cc1,22.7
12,Cc1ccc(NC(=O)C2CC2(c2ccccc2)c2ccccc2)cc1C (centres undefined),-4
13,CCn1c(O)c(/C=N/N=C/c2ccccc2)c2ccc(C3=NNC(=O)CC3)cc21,119
14,O=S(=O)(NCc1ccc2c(c1)OCO2)c1ccc(Cl)cc1,-2.8
15,C=CCOc1cccc(/C=N/NC(=O)C(=O)NCc2ccccn2)c1,-1.4
16,Cc1ccc2nc(NC(=O)c3ccc4c(c3)OCO4)sc2c1,0.7
17,CN(Cc1ccccc1)C(=O)c1cc2nc(-c3ccccc3)cc(-c3ccccc3)n2n1,11.4
18,O=C(Nc1ccc(Cl)cc1)C1CC1(c1ccccc1)c1ccccc1 (centres undefined),-2.9
19,O=C(Nc1nnc(-c2cccs2)s1)c1cccc2ccccc12,9.2
20,COc1ccc(C(=O)Nc2ccc(OC)c(OC)c2)cc1,-11.6
21,CCOC(=O)c1c(NC(=O)c2ccccc2Cl)sc2c1CCCCC2,4.4
22,CCOc1ccc(C(NC=O)c2ccc(OC)c(OC)c2)cc1 (centres undefined),-4.3

row,SMILES,displacement [%]
1,O=C(NC(=S)N1CCOCC1)c1ccc(F)cc1,6.3
2,N#C/C(=C(/O)c1ccc([N+](=O)[O-])cc1)c1nc2ccccc2[nH]1,5
3,Cc1ccc(NC(=O)/C=C/c2cccc([N+](=O)[O-])c2)cc1,-2.4
4,CCOc1cccc(NC(=O)/C(C#N)=C/c2cn(CC(=O)Nc3ccccc3)c3ccccc23)c1,104
5,CC(=O)c1c(OC(=O)c2ccccc2)ccnc1C(F)(F)F,1.8
6,CCOC(=O)NC(NC(=S)Nc1c(C)n(C)n(-c2ccccc2)c1=O)C(Cl)(Cl)Cl (centres undefined),-3.8
7,CN(C)c1ccc(/C=C2\C(=O)NC(=S)N(c3ccc(Cl)c(Cl)c3)C2=O)cc1,-4.8
8,Cc1c(C=O)c(=O)oc2c3c4c(cc12)CCCN4CCC3,148
9,CC(Oc1ccccc1)C(=O)Nc1cccc(NC(=O)C(C)Oc2ccccc2)n1 (centres undefined),15.9
10,CC(C)(C)C(=O)Nc1ccc(C(=O)Oc2ccccc2)c(O)c1,-10.3
11,O=C1C2ON(c3ccccc3)C(c3cccc(Br)c3)C2C(=O)N1c1ccccc1 (centres undefined),11.2
12,C/C(Cn1nnc([N+](=O)[O-])n1)=N\NC(=O)c1ccc(Cl)c(Cl)c1,-0.9
13,O=C1CSC(=S)N1Cc1ccc(Cl)c(Cl)c1,11.7
14,CSc1ccc(/C=N/S(=O)(=O)CCc2ccccc2)cc1,-7.7
15,Cc1ccc(/C(CCN(C)C)=N/O)cc1,0.9
16,CCOc1ccc(S(=O)(=O)N(CC(=O)Nc2cc(C)cc(C)c2)c2ccc(C)cc2)cc1,10.2
17,O=C(CN1CCOCC1)Nc1ccc(-c2nc3ccccc3[nH]2)cc1,12.1
18,CC(=O)c1ccc(NC(=O)COc2ccc([N+](=O)[O-])cc2)cc1,3.9
19,O=C1C(=O)N(c2cccnc2)C(c2ccccc2Cl)/C1=C(\O)c1ccc(Cl)cc1 (centres undefined),-6.5
20,COc1cc(C2C3=C(CC(C)(C)CC3=O)OC3=C2C(=O)CC(C)(C)C3)cc(OC)c1O,-3.5
21,COc1ccc(C(=O)Nc2nnc(CCS(=O)(=O)c3ccc4ccccc4c3)s2)cc1OC,3.8
22,CCN(CC)S(=O)(=O)c1ccc(Cl)c(C(=O)Nc2ccc(OC)cc2)c1,-20.3

row,SMILES,displacement [%]
1,C=CCc1cc(/C=C2\C(=O)NC(=O)N(c3cc(C)cc(C)c3)C2=O)cc(OCC)c1OCC(=O)O,-11.7
2,O=C(COc1ccc2ccccc2c1)N/N=C\c1cc(O)c(O)c(Br)c1,6.6
3,FC(F)(F)c1cccc(-c2nnc3ccc4ccccc4n23)c1,-3.3
4,O=C(COc1ccc(Br)cc1)Nc1ccc(F)c([N+](=O)[O-])c1,2
5,O=C(/C=C/c1ccc(-c2ccc(Cl)cc2Cl)o1)c1ccc(F)cc1,8.2
6,Cc1cc(=O)oc2c(CN3CCN(CCO)CC3)c(O)ccc12,-9
7,CC1(C)Nc2ccccc2N(Cc2ccc(Cl)c(Cl)c2)C1=O,-7.9
8,CC(=O)c1c(C(=O)O)cccc1C(=O)O,4.4
9,O=C1NN(c2ccccc2)C(=O)/C1=C\c1ccc(Cl)cc1,11.1
10,Cc1ccccc1NCC(=O)N/N=C\c1cc(Br)cc(Br)c1O,-7.8
11,CCOC(=O)c1ccc(Nc2ncnc3c2cnn3-c2ccccc2)cc1,3
12,CN(C1=C(Cl)C(=O)N(c2ccccc2)C1=O)c1ccccc1,3.9
13,CCOc1nc(-c2ccccc2)c2cc(Br)ccc2n1,20.5
14,COc1ccc(C(C)(C#N)CC#N)cc1 (centres undefined),1.8
15,Cc1cc2c(cc1C)NC(CC(=O)Nc1ccccc1C(F)(F)F)C(=O)N2 (centres undefined),-13
16,COc1ccc(/C=C2\C=C(c3ccc(Cl)cc3)OC2=O)c(C)c1,0
17,CCOC(=O)C1=C(O)/C(=C/c2ccc(Cl)cc2Cl)SC1=Nc1cccc(Cl)c1,-3.9
18,CCC(CC)=NNC(=O)C(=O)NC(C)C,-10.7
19,CC1CCN(c2nc3ccccc3n3cnnc23)CC1,6.3
20,Cc1cc(C)c(C#N)c(SCC(=O)Nc2ccc(Cl)cc2)n1,-6
21,NC(=O)c1c(NC(=O)C2c3ccccc3Oc3ccccc32)sc2c1CCCCCC2,-4.7
22,COc1ccc(NC(=O)C(=O)N/N=C/c2ccc(OC)cc2OC)cc1,12.4

row,SMILES,displacement [%]
1,O=C(Nc1ccccc1C(=O)O)c1ccc2c(c1)C(=O)N(CC1CCCO1)C2=O (centres undefined),3.9
2,CCc1cc(C=C(Cl)Cl)oc(=O)c1C,0
3,O=C(Nc1cccc2nsnc12)c1cccc([N+](=O)[O-])c1,2.4
4,CCOC(=O)COc1ccc2c(oc(=O)c3ccccc32)c1C,8.2
5,O=C(Nc1ccc2c(c1)OCO2)C(=O)Nc1ccc2c(c1)OCO2,21.3
6,COc1cccc(CN2CCN(C(=O)c3ccc(-c4ccccc4)cc3)CC2)c1OC,-9
7,Brc1ccc(-c2noc(C(c3ccccc3)c3ccccc3)n2)cc1,10.5
8,CCOC(=O)c1c(C)[nH]c(/C=N/O)c1O,9
9,O=C(NCCNc1ccc([N+](=O)[O-])cc1)c1ccc(Cl)cc1,12.4
10,CSc1nsc(SC)c1NC(=O)OCCN1CCOC1=O,13.8
11,COc1ccc(N2C(=O)/C(=C/c3ccc(OCc4ccccc4F)c(OC)c3)C(=O)NC2=S)cc1,-10.9
12,COc1ccc(/C=C(\NC(=O)c2ccc(OC)cc2)C(=O)NCc2ccco2)cc1,-6
13,CCOC(=O)NC(NC(=S)Nc1ccc(NC(C)=O)cc1)C(Cl)(Cl)Cl (centres undefined),4
14,Cc1cc(=O)oc2cc(OCc3ccc(F)cc3)c(Cl)cc12,16.8
15,COc1ccc(/C=C2/SC(=S)N(/N=C/c3cc([N+](=O)[O-])ccc3O)C2=O)c(OC)c1,-3.6
16,O=C(Nc1ccc(Cl)c(-c2nc3ccccc3[nH]2)c1)c1cccs1,-63.3
17,O=C(NC(Nc1ccc([N+](=O)[O-])cc1)C(Cl)(Cl)Cl)c1cccc(I)c1 (centres undefined),6.8
18,COC(=O)C1=C(C)NC(=O)/C1=C\c1ccc(C(=O)O)cc1,4
19,Cc1ccc(S(=O)(=O)N2CCN(Cc3cccc4ccccc34)CC2)cc1,11.7
20,CC(O)CNC(=O)C(=O)Nc1ccc(F)cc1 (centres undefined),9.1
21,O=C(O)CN1C(=O)/C(=C\c2ccc(-c3ccccc3Cl)o2)SC1=S,-121
22,COc1ccc(Br)cc1C1C(C(=O)OCCOC(C)C)=C(C)NC2=C1C(=O)CCC2 (centres undefined),-2.6

row,SMILES,displacement [%]
1,O=C/C(=C\Nc1ccc(S(=O)(=O)CCO)cc1)c1nc2cc(Cl)ccc2o1,88.3
2,CCN(CC)c1ccc(C(=O)Nc2ccc(F)cc2F)cc1,5.1
3,O=C1NC(=O)/C(=C\c2ccc(O)cc2)S1,1.8
4,O=C(Nc1cccc(-c2nc3cc(Cl)ccc3o2)c1)c1cccc([N+](=O)[O-])c1,-3.3
5,COc1ccccc1CC(=O)N1CCc2ccccc21,13.6
6,CCN(CC)c1ccc(NC(=O)c2cccc(OCc3ccccc3)c2)cc1,32.4
7,CCN(CC)C(=O)c1cn(-c2ccccc2)nc1-c1ccc(Br)cc1,-0.6
8,CCN=C(Nc1cccc(Cl)c1)SC1CC(=O)N(c2ccc(OCC)cc2)C1=O (centres undefined),-8
9,Cc1cccc(NC(=O)c2ccccc2NC(=O)c2ccccc2F)c1,7.7
10,COc1ccc2c(c1OC)C(=O)N(c1ccc(Cl)c(Cl)c1)C2=O,-15
11,O=c1oc2ccc(Br)cc2cc1-c1nc(-c2ccc([N+](=O)[O-])cc2)cs1,-7.2
12,COc1ccccc1OCCNC(=O)c1ccc(Br)cc1,-19.3
13,Cc1ccc2nsnc2c1NC(=O)COc1ccc([N+](=O)[O-])cc1,-1.5
14,COc1ccc(C2(CC(=O)O)CCOC(C)(C)C2)cc1 (centres undefined),2.8
15,O=C(Oc1ccc2ccccc2c1)c1cc([N+](=O)[O-])ccc1Cl,-0.9
16,CCOc1ccc(NC2=CC(=O)CC(c3ccccc3)C2)cc1 (centres undefined),-3.3
17,O=C(O)c1ccc(/C=N/N2CCN(c3ccccc3)CC2)cc1,3.1
18,CC1CCc2c(sc(N)c2C(N)=O)C1 (centres undefined),34
19,C/C(=N\N=C1\NC(=O)C(CC(=O)Nc2ccccc2C)S1)c1ccco1 (centres undefined),10.3
20,CS(=O)(=O)N(Cc1ccc(C(=O)NCCSc2ccccn2)cc1)c1ccccc1,3
21,CC(C)Oc1ccc(C2Nc3ccccc3NC3=C2C(=O)CC(C)(C)C3)cc1 (centres undefined),-0.6

# Reference: PubChem BioAssay AID1240 (Sanford-Burnham Center for Chemical Genomics, 2008)
